Measured values: the supplement of paper PMC4604168 (melanoma cell lines)
This is one part of the list. Most values come without repeats; read them as rough.

Key:
Experiment in all cases: cell count relative to DMSO control; melanoma cells; higher = more viable cells
Conditions in all cases: library dose: standard library concentration; 72 h
SkMel28 = tested on: SkMel28
SkMel2 = tested on: SkMel2
SkMel30 = tested on: SkMel30
SkMel5 = tested on: SkMel5
UACC257 = tested on: UACC257
UACC62 = tested on: UACC62
WM115 = tested on: WM115
WM1716 = tested on: WM1716
WM1745 = tested on: WM1745
WM3526 = tested on: WM3526
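Further: cells treated in 1,536-well plates, then fixed and DAPI-stained, with nuclei counted from automated high-throughput microscope images.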

SMILES | cell count (SkMel28) [%] | cell count (SkMel2) [%] | cell count (SkMel30) [%] | cell count (SkMel5) [%] | cell count (UACC257) [%] | cell count (UACC62) [%] | cell count (WM115) [%] | cell count (WM1716) [%] | cell count (WM1745) [%] | cell count (WM3526) [%]
Cc1ccc(NC(=O)c2cccc(N(C)C)c2)cc1NC(=O)c1ccc(O)cc1 + COc1cc(N2CCC(N3CCN(C)CC3)CC2)ccc1Nc1ncc(Cl)c(Nc2ccccc2S(=O)(=O)C(C)C)n1 [NVP-TAE684] (first compound 10 µM, partner dose 0.4 µM) | 86.2 | 46.9 | 87.7 | 64.9 | 90.1 | 103 | 87.6 | 98.9 | 44 | 71.3
NC(=O)c1ccc(N(C(N)=O)c2c(F)cccc2F)nc1-c1ccc(F)cc1F + C=C(c1ccc(C(=O)O)cc1)c1cc2c(cc1C)C(C)(C)CCC2(C)C [Bexarotene] (first compound 2 µM, partner dose 10 µM) | 103 | 95.5 | 120 | 105 | 83.9 | 90.1 | 104 | 86.5 | 95.2 | 90
CC(C)(C)c1cnc(CSc2cnc(NC(=O)C3CCNCC3)s2)o1 + COc1cc2ncnc(Nc3ccc(Oc4ccccc4)cc3)c2cc1OC [SrcI1] (first compound 0.05 µM, partner dose 10 µM) | 52.6 | 74.8 | 84.5 | 52.6 | 71.9 | 55.6 | 55.4 | 62.1 | 54.1 | 58.9
CCCCCCCCc1ccc(CCC(N)(CO)CO)cc1 [fingolimod] + CN(c1ncccc1CNc1nc(Nc2ccc3c(c2)CC(=O)N3)ncc1C(F)(F)F)S(C)(=O)=O [PF562271] (first compound 10 µM, partner dose 0.4 µM) | 1.82 | 31 | 11 | 42.6 | 78.8 | 24.2 | 8.76 | 50.7 | 5.46 | 44.4
COc1cc2c(Oc3ccc4[nH]c(C)cc4c3F)ncnc2cc1OCCCN1CCCC1 [cediranib] + COc1ccc2c(c1)CCC1C2CCC2(C)C(NCCCCCCN3C(=O)C=CC3=O)CCC12 [U73122] (first compound 2 µM, partner dose 2 µM) | 143 | 103 | 82.7 | 69.2 | 83.6 | 63.2 | 79.8 | 89.2 | 93.8 | 86.1
COc1cc2c(Oc3ccc4[nH]c(C)cc4c3F)ncnc2cc1OCCCN1CCCC1 [cediranib] + Cc1cc([N+](=O)[O-])ccc1NS(=O)(=O)c1cc(Cl)ccc1Cl [FH535] (first compound 2 µM, partner dose 5 µM) | 61.1 | 91 | 72.9 | 75.2 | 66.2 | 78.7 | 75.6 | 77.4 | 82.8 | 76.7
NC(=O)c1ccc(N(C(N)=O)c2c(F)cccc2F)nc1-c1ccc(F)cc1F + CCN(CC)CCNC(=O)c1c(C)[nH]c(/C=C2\C(=O)Nc3ccc(F)cc32)c1C [sunitinib] (first compound 2 µM, partner dose 2 µM) | 35.9 | 62.1 | 52.5 | 49.4 | 104 | 52.5 | 59.1 | 92.8 | 46.4 | 52.8
